The target in assay [1] is T1, GST-DAT-NT (complete N terminus of DAT fused to GST) (human) (UniProt Q01959).
T1 sequence: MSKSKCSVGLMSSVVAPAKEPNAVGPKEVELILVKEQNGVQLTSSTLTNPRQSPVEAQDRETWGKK
As to the kind of experiment: pull-down; in vitro binding assay: glutathione beads with 20 μg GST fusion or GST incubated with [35S]-methionine-labeled in vitro translated CPE probe, room temperature, 1 hour; washed six times with PBS with 0.1-0.5% Triton X-100; autoradiography; only the target purified.

Amino acid sequences for entries named in this document (tags omitted). Residues count along the entry.
UniProt P15087, residues 43-476: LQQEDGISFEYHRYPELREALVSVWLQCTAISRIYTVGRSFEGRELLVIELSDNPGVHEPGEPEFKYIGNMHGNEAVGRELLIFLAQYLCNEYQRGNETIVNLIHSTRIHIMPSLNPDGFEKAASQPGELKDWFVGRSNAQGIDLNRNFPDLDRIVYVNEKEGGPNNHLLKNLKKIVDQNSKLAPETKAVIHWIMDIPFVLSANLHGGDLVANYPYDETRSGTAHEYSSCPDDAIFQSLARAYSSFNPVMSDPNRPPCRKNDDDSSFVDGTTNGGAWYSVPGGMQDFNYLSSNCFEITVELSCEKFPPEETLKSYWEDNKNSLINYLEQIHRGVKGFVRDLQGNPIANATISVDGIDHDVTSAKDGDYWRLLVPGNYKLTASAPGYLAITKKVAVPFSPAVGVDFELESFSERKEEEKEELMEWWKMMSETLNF
UniProt P16870: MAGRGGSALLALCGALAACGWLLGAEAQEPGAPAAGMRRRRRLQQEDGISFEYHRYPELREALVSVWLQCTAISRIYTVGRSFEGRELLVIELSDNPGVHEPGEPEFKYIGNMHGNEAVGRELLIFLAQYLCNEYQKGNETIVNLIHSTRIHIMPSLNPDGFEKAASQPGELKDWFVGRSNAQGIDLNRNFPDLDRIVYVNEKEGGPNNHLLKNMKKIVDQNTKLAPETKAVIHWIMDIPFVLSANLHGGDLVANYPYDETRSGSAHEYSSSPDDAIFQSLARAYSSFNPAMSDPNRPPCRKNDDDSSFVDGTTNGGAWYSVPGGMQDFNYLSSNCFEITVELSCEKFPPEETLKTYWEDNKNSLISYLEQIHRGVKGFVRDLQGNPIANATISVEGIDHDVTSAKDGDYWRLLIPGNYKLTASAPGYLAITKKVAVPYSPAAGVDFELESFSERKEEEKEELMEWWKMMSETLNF
UniProt P23977: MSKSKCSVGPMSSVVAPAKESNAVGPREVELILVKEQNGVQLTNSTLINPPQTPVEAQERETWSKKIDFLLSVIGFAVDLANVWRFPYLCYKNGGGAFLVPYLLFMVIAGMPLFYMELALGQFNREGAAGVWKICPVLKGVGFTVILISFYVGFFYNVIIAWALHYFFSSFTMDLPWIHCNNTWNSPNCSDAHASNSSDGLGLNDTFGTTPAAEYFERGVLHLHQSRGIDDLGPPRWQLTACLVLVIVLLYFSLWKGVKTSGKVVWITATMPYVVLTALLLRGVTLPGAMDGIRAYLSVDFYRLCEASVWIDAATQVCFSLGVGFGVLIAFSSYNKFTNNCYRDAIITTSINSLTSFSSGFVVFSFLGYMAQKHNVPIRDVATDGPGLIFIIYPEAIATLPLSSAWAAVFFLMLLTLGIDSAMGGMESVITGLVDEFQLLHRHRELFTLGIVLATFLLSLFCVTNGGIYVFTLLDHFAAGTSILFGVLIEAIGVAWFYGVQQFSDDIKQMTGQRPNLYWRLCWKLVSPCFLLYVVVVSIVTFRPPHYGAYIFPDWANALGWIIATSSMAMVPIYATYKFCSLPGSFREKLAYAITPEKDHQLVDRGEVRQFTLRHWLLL

For assay [2], the target named is GST-DAT-CT (complete C terminus of DAT fused to GST) (human) (UniProt Q01959). Described as above.
Assay [3] has as its target T1, GST-DAT-NT (complete N terminus of DAT fused to GST) (human). In words: pull-down; GST-fusion proteins (50 to 100 μg) on glutathione-Sepharose beads incubated with solubilized rat striatum extracts (50-100 μg protein), 4°C, 12 hr; washed with PBS with 0.1-0.5% Triton X-100; Western blot with anti-CPE; only the target purified.
For assay [4], the target named is GST-DAT-CT (complete C terminus of DAT fused to GST) (human) (UniProt Q01959). Described as above.
For assay [5], the target named is carboxypeptidase E (CPE), endogenous in rat striatum (rat (endogenous in striatum)) (UniProt P15087). As to the kind of experiment: co-IP; solubilized rat striatum extracts (500 to 700 μg protein), anti-CPE antibodies, protein A/G agarose, 4°C, blot with anti-DAT; also striatal slices with or without 2 μM PMA for 30 min (association reduced by PMA).

Results are given in words; binding and its absence hold for the method and conditions named. In cells and extracts the contact can be indirect. Some entries that bind do so weakly or less than the wild type. For some assays here: Sequences can lack the tags named with a protein.

“[35S]-methionine-labeled CPE probe, in vitro translated (from UniProt P16870 1-476)”: the results for the binding entry in assay [1] and in assay [2] were “no binding” and “binds”, respectively.

Consider “carboxypeptidase E (CPE), endogenous in rat striatum (from UniProt P15087 43-476)”, for which the binding result in assay [3] was “no binding”; in assay [4] it was “binds”.

For the substance “dopamine transporter (DAT), endogenous in rat striatum (from UniProt P23977 1-619)”, the binding result in assay [5] was “binds”.

The record behind these values is publication PMC2687442.
